Among all 310,000 compounds or so, about 18,000 (5.8%) were called active. The shares of active, inactive and inconclusive entries below differ from those in the screen. The call rests on the fitted dose curve; in most records, active means well fitted inhibition curve with a large enough effect; inconclusive means small, poorly fitted or top-dose-only effect, or another doubt; inactive means no such curve, though single readings can be large or run the other way. Potencies of inconclusive entries are left out as doubtful fits.
Test: Primary qHTS for delayed death inhibitors of the malarial parasite plastid, 48 hour incubation
Conditions: P. falciparum luciferase growth in erythrocytes; series mostly up to 28.7 µM
How it was run: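 Luciferase-expressing P. falciparum in infected erythrocytes (2% hematocrit, 0.1% parasitemia final) in RPMI 1640/0.5% Albumax were exposed to compound for 48 hours at 37 C, 5% CO2; growth read as luminescence.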
Potency means the concentration at half of the fitted maximal effect; tags describe the fitted curve by direction and shape.

Structure (SMILES)	Potency
COc1cccc(Oc2nc(-c3ccncc3)nc3ccccc23)c1	inconclusive [inhibitor, full curve, poor fit]
CCOn1c(=O)c(-c2ccc(Br)cc2)[n+]([O-])c2ccccc21	inactive
O=C(O)c1ccc(Cn2cnc3sc4c(c3c2=O)CCCC4)cc1	inactive
CCOc1ccccc1N(CC)C(=O)c1nn(C)c2c1CSc1ccccc1-2	inconclusive [inhibitor, single point]
CC(C)c1ccc(NC(=O)c2cc(S(=O)(=O)NCC3COc4ccccc4O3)ccc2F)cc1 (stereo not drawn)	inconclusive [inhibitor, partial curve, poor fit]
Cc1nc2c(c(=O)n1Cc1ccccc1Cl)c1nc3ccccc3nc1n2Cc1ccco1	inconclusive [inhibitor, partial curve, poor fit]
COc1ccc(N2CCN(S(=O)(=O)c3cc4c5c(c3)C(C)C(=O)N5CCC4)CC2)cc1 (stereo not drawn)	inconclusive [inhibitor, single point]
CCOc1ccccc1/C=C/c1onc(C)c1S(=O)(=O)N1CCC(C(=O)N(CC)CC)CC1	active: 10.4 µM
Nc1nnc(-c2cn(-c3ccccc3)nc2-c2ccc(Cl)cc2)o1	active: 3.7 µM
O=c1cc(-c2ccc(Cl)cc2)[nH]c2ccccc12	active: 1.47 µM
CN1CCN(C(=O)C2=C[C@@H](c3coc4ccccc4c3=O)C[C@@H](OCc3ccc(CO)cc3)O2)CC1	inconclusive [inhibitor, full curve, poor fit]
COc1cccc2[nH]c3ccccc3c(=O)c12	inconclusive [inhibitor, partial curve]
CCC(C)n1c(SCC(=O)Nc2cc(C)on2)nc2ccccc2c1=O (stereo not drawn)	inconclusive [inhibitor, partial curve, poor fit]
NC(=O)C1(N2CCCCC2)CCN(C(=O)NC23CC4CC(CC(C4)C2)C3)CC1	inconclusive [inhibitor, partial curve, poor fit]
Cc1ccc(Cn2ccc(NC(=O)c3cc(-c4ccc(F)cc4)on3)n2)cc1	inactive
OC1(c2ccc3c(c2)OCO3)CCN(Cc2ccccn2)CC1	inactive
O=C(CSc1nnc2ccccn12)NC(=O)c1ccccc1	inconclusive [inhibitor, partial curve, poor fit]
CCCCn1c(O)c(N=NC(=O)c2ccncc2)c2cc(Br)ccc21	inactive
Cc1cc(=O)[nH]c(N/N=C/c2sccc2C)n1	inactive
O=C(O)c1cccc2c1C(=O)c1ccc(-c3ccc(F)cc3OCc3ccccc3)cc1S2(=O)=O	inconclusive [inhibitor, single point]
Cn1c(=O)oc2cc(S(=O)(=O)NCCC(=O)N3CCN(c4ccccc4)CC3)ccc21	inconclusive [inhibitor, single point]
Cc1cccc(NC(=S)NCC(c2cccnc2)N2CCOCC2)c1 (stereo not drawn)	inactive
CC(C)NC(=O)NC(=O)COC(=O)c1cc(S(=O)(=O)N2CCCCC2)ccc1N1CCOCC1	active: 8.28 µM

Structure (SMILES)	Potency
N#Cc1c(NC(=O)C2CC(Cl)=CCC2C(=O)O)sc2c1CCCC2 (stereo not drawn)	inactive
CCOC(=O)CSc1n[nH]c(NC(C)=O)n1	inactive
COc1cccc(/C=N\NC(=O)c2ccc(Cn3cc(Br)c([N+](=O)[O-])n3)o2)c1O	inconclusive [inhibitor, partial curve, poor fit]
COc1ccc(CN2CCNCC2)cc1	inactive
N#CC1=C(N)N(c2ccc(Oc3ccccc3)cc2)C(=O)C1	inconclusive [inhibitor, single point]
COc1cccc(Nc2nc(-c3cccnc3)cs2)c1	inactive
Cc1ccc(C)c(N2CCN(CCCNC(=O)Cn3c(=O)c4cccn4c4cccnc43)CC2)c1	inconclusive [inhibitor, partial curve]
O=S(=O)([N-]c1nc2ccccc2nc1-[n+]1ccc(CCCc2ccccc2)cc1)c1cccs1	active: 7.38 µM
C#CCSc1nc(C)cc(C(=O)OCC)c1C#N	inconclusive [inhibitor, single point]
COc1ccc(OC)c(S(=O)(=O)CC(O)COc2ccccc2Cl)c1 (stereo not drawn)	inconclusive [inhibitor, partial curve]
COc1cccc(C2CCCCN(C)C2=O)c1 (stereo not drawn)	inconclusive [inhibitor, single point]
COCCOC(=O)C1=C(C)NC(=O)N(C(C)=O)C1c1ccc(Cl)cc1 (stereo not drawn)	inconclusive [inhibitor, single point]
C=CCNC(=O)CN(Cc1ccccc1)S(=O)(=O)c1ccc(C)cc1	inconclusive [inhibitor, partial curve]
CCSc1cc(N2CCCC2)nc(-c2ccc(C)cc2)n1	inconclusive [inhibitor, single point]
CC(C)(C)C1(O)CC(C(F)(F)F)=NN1C(=O)Cc1ccc([N+](=O)[O-])cc1 (stereo not drawn)	inconclusive [inhibitor, partial curve, poor fit]
Cc1cc(OCC(=O)NCCN2CCOCC2)c2c(C)c(C)c(=O)oc2c1	inactive
COC(=O)c1ccc(CNC(=O)CNC(=O)c2sc3ccccc3c2Cl)cc1	inconclusive [inhibitor, full curve, poor fit]
Cn1c(SCC(=O)N2c3ccccc3Sc3ccccc32)nnc1-c1ccco1	inconclusive [inhibitor, single point]
CCN(c1ccccc1)S(=O)(=O)c1ccc(OC)c(NC(=O)CN(C)C)c1	inactive
COCCNC(=O)c1c[nH]c2ccc(S(=O)(=O)N3CCc4ccccc43)cc2c1=O	inconclusive [inhibitor, single point]
Cc1cc(C)nc(N/C(=N\S(=O)(=O)Cc2ccccc2)Nc2ccccc2Br)n1	inconclusive [inhibitor, single point]
COc1ccc(CNC(=O)CCCCCNC(=O)N2CCn3c2nc2ccccc23)cc1	inconclusive [inhibitor, single point]
Cc1nc(N2CCN(c3ccccn3)CC2)c2c(C)c(C(=O)Nc3ccc(F)c(Cl)c3)sc2n1	inconclusive [inhibitor, full curve]

Structure (SMILES)	Potency
O=C(CCS(=O)(=O)c1ccccc1)Nc1cccc2c1C(=O)NC2=O	inactive
COC(=O)C1=CC(C(=O)c2cccs2)=NN(c2ccc(OC)cc2)C1C(=O)OC (stereo not drawn)	inconclusive [inhibitor, single point]
COc1ccc(CN(CC2CCCO2)C(=O)CN2C(=O)COc3ccccc32)cc1OC (stereo not drawn)	inconclusive [inhibitor, single point]
CC(=O)Nc1ccc(N(C)C)cc1[N+](=O)[O-]	active: 2.62 µM
COC1OC(COC(=O)c2ccccc2)C(OC(=O)c2ccccc2)C1OC(=O)c1ccccc1 (stereo not drawn)	inconclusive [inhibitor, partial curve]
CCCC1=C(C(=O)OCC)C(c2ccco2)C(C#N)=C(N)O1 (stereo not drawn)	inactive
c1ccc(Oc2ccc(-n3cnnn3)cc2)cc1	inactive
Cc1ccc(NC(=S)NC2CCN(Cc3ccccc3)CC2)cc1C	inconclusive [inhibitor, partial curve, poor fit]
CC(=O)NC1=NN(C(C)=O)C(C)(c2ccco2)S1 (stereo not drawn)	inconclusive [inhibitor, single point]
Cc1ccc(NC(=S)NC2CCSc3ccccc32)cc1 (stereo not drawn)	inconclusive [inhibitor, partial curve, poor fit]
CCOC(=O)C1CCN(C(=O)c2ccc(S(=O)(=O)Nc3ccccc3OC)cc2)CC1	inconclusive [inhibitor, single point]
COC(=O)c1c(-c2cccc(C)c2)csc1NC(=O)C1CCCO1 (stereo not drawn)	active: 13.1 µM
CC(=O)N1CCn2c3c(c(=O)c4cc(C)ccc42)CCC31 (stereo not drawn)	inconclusive [inhibitor, single point]
CCc1nn(CC(=O)NCCCN2CCc3ccccc3C2)c(=O)c2cc3sccc3n12	inconclusive [inhibitor, single point]
Cc1cccc(-n2c(SCC(=O)N3CC(=O)Nc4ccccc43)nc3ccccc3c2=O)c1C	inconclusive [inhibitor, single point]
CCOC(=O)c1cc2oc(C(c3nnnn3C3CCCCC3)N3CCOCC3)cc2[nH]1 (stereo not drawn)	active: 9.28 µM
Cn1c(=O)c2c(nc(N/N=C/c3ccco3)n2C)n(C)c1=O	inconclusive [inhibitor, single point]
COCCCn1c(SCc2cccc(C(F)(F)F)c2)nc2cc(OC)c(OC)cc2c1=N	inconclusive [inhibitor, single point]
COc1ccc(Nc2nc3ccccc3c(=O)s2)c(OC)c1	inconclusive [inhibitor, single point]
Cn1c(=O)oc2cc(S(=O)(=O)CCC(=O)N3CCN(c4ccccc4)CC3)ccc21	inconclusive [inhibitor, partial curve]
CCOc1cc(N2CCOCC2)c(OCC)cc1NC(=O)c1ccc(C)cc1	inconclusive [inhibitor, single point]
CCc1cc2cccc(C)c2nc1SCC(=O)Nc1nonc1C	inconclusive [inhibitor, single point]

From PubChem BioAssay AID504832 (National Center for Advancing Translational Sciences (NCATS), 2011)
